Out of some 310,000 compounds screened, about 14,000 (4.5%) showed an effect of 50% or more. The effect is printed as a negative number. This is one part of the list.

This is an account of results in article PMC4336329 (PLoS ONE, 2015).
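Note: peak tail current of the secondary pulse compared with the same well before compound.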

For this test, the target named is human ether-à-go-go-related gene (hERG) potassium channel (human, UniProt Q12809). The test is described as follows: primary screen, population patch clamp on CHO cells stably expressing hERG.
Sequence of human ether-à-go-go-related gene (hERG) potassium channel (Q12809 whole entry, looked up): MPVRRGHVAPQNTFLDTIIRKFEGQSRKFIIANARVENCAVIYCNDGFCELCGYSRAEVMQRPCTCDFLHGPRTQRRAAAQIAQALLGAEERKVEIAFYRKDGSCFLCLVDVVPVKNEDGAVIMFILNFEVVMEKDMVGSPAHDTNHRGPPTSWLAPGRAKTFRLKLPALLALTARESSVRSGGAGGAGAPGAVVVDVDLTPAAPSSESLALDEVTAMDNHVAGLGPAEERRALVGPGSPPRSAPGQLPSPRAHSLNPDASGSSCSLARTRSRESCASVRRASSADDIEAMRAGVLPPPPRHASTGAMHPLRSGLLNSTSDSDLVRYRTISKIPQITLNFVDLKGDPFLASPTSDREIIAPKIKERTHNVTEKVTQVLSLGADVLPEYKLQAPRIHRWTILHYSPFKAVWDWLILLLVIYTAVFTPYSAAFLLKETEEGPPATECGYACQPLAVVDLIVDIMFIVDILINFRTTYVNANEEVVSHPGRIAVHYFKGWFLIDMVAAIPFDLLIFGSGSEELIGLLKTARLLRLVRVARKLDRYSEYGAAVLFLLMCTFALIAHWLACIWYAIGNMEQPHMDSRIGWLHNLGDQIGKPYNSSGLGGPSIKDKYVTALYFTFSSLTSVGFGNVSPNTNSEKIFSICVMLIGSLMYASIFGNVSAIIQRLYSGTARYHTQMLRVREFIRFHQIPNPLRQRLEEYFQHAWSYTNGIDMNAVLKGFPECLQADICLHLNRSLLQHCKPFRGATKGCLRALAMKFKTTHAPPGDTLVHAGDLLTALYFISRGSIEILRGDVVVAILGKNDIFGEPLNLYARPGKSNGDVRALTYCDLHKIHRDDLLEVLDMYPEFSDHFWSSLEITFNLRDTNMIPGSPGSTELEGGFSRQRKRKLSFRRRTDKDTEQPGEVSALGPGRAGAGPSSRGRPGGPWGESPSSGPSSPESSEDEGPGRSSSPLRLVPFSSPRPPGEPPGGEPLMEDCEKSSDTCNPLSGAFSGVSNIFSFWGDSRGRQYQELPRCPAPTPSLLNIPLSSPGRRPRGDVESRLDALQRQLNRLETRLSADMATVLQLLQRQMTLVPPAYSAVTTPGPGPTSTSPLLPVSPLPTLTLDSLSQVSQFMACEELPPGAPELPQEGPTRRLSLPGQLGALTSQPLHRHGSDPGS
Take `COC(=O)c1cc(NC(=S)N2CCN(c3ccccn3)CC2)cc(C(=O)OC)c1`: the “hERG current change (%, negative = inhibition) at 10uM” value is recorded as -13.9%.
Next, `CCOC(=O)/C(C#N)=C1/SC(CC)C(=O)N1c1ccc(C)cc1` (stereo not drawn): -14.8%; `COc1ccc(C)cc1Nc1n[n+](C)c(-c2c3ccccc3cc3ccccc23)s1.[Cl-]`: 13.3%; `CCOc1cc(C(=O)Nc2cc3c(cc2N2CCOCC2)n(C)c(=O)n3C)cc(OCC)c1OCC`: 6.6%.
In the case of `O=C(NCCCN1CCOCC1)C(=O)NCc1ccccc1`, the “hERG current change (%, negative = inhibition) at 10uM” value amounted to 1.24%.
For `C/C(=N\Nc1ccc([N+](=O)[O-])cc1[N+](=O)[O-])c1ccc(-n2nncc2C(C)(C)C)cc1`, the “hERG current change (%, negative = inhibition) at 10uM” value worked out at 0.659%.
The value for `Oc1ccccc1CN(Cc1ccco1)CC(O)COCc1ccc(Cl)cc1` (stereo not drawn) was -8.65%.
As to `Cc1cccc(Nc2c([N+](=O)[O-])c(=O)oc3ccccc23)c1`, the “hERG current change (%, negative = inhibition) at 10uM” value is listed as -4.39%.
As for `C(=C\c1ccccc1)/CSc1nnc(-c2cnccn2)n1Cc1ccco1`, the “hERG current change (%, negative = inhibition) at 10uM” value is given as -73.4%.
With `CC(=O)NN1C(=O)c2ccccc2NC1c1ccc([N+](=O)[O-])o1` (stereo not drawn), the “hERG current change (%, negative = inhibition) at 10uM” value is given as 8.22%.
On to `CCC(C)[C@H](NC(=O)N1CCCCC1)C(=O)OC` (stereo partly drawn), for which the “hERG current change (%, negative = inhibition) at 10uM” value is 3.36%.
On to `CNC(=O)c1cc(Nc2nnc(-c3ccc(C)c(S(N)(=O)=O)c3)c3ccccc23)ccc1OC`, for which the “hERG current change (%, negative = inhibition) at 10uM” value is given as 15.4%.
Turning to `COc1cccc(OCc2ccc(Cl)cc2)c1C#N`, the “hERG current change (%, negative = inhibition) at 10uM” value was 19.6%.
Consider `O=C(CCc1nnc2ccc(NCc3ccccc3Cl)nn12)NC1CCCCC1`, for which the “hERG current change (%, negative = inhibition) at 10uM” value was -7.98%.
Consider `COc1ccc(C(CNC(=O)c2ccco2)N2CCCCC2)cc1` (stereo not drawn), for which the “hERG current change (%, negative = inhibition) at 10uM” value is listed as -5.74%.
`CCC(NC(=O)Nc1cc(OC)c(OC)c(OC)c1)(C(F)(F)F)C(F)(F)F`: the “hERG current change (%, negative = inhibition) at 10uM” value amounted to 9.56%.
Take `O=C1N=c2ccccc2=C1c1sc(=S)n(CC2CCCO2)c1O` (stereo not drawn): the “hERG current change (%, negative = inhibition) at 10uM” value is listed as 5.15%.
With `Cc1cccc(NC(=O)Cn2c(O)c(N=NC(=O)c3ccccc3O)c3ccccc32)c1`, the “hERG current change (%, negative = inhibition) at 10uM” value worked out at 2.85%.
Take `CSc1nc(N2CCN(C)CC2)c2ccccc2n1`: the “hERG current change (%, negative = inhibition) at 10uM” value is -49.1%.
Next, `O=C(Nc1ccccc1N1CCN(C(=O)c2ccc(Cl)cc2)CC1)c1cc2ccccc2o1`: -2.33%; `Cc1cccc(NC(=O)c2ccc([N+](=O)[O-])o2)c1`: -10.1%; `CC1CCN(C(=O)C(=O)c2cn(CC(=O)N3CCCCCC3)c3ccccc23)CC1`: 14%.
For `CCOc1ccc(CN(C(=O)/C=C/c2ccco2)C2CCS(=O)(=O)C2)cc1` (stereo not drawn), the “hERG current change (%, negative = inhibition) at 10uM” value is listed as -31.6%.
In the case of `COc1cccc(NC(=O)C2c3cc(OC)c(OC)cc3C(=O)N(C)C2c2cccnc2)c1` (stereo not drawn), the “hERG current change (%, negative = inhibition) at 10uM” value is listed as -4.11%.
As for `O=C(CN1CCN(S(=O)(=O)c2ccccc2)CC1)Nc1ccc2c(c1)CCC2`, the “hERG current change (%, negative = inhibition) at 10uM” value was -32.3%.
`Cc1cccc(C2c3[nH]c4ccccc4c3CCN2Cc2cccn2-c2ncccn2)c1` (stereo not drawn): the “hERG current change (%, negative = inhibition) at 10uM” value is -77.8%.
Next, `CCCc1cc(=O)[nH]c(SCC(=O)c2ccc(S(=O)(=O)N3CCCC3)cc2)n1`: -12.9%.
Consider `COc1cccc(NC(=O)CS(=O)(=O)c2cccc3nsnc23)c1`, for which the “hERG current change (%, negative = inhibition) at 10uM” value is on record as 4.92%.
Turning to `CCn1c(CNC(=O)C2CCCCC2)cc2cc(C)ccc21`, the “hERG current change (%, negative = inhibition) at 10uM” value is reported as 28%.
Take `O=CNc1ccc(OC(=O)c2cncc(Br)c2)cc1`: the “hERG current change (%, negative = inhibition) at 10uM” value amounted to 26.8%.
Regarding `COC(=O)c1ccc(Cn2cnc3cnccc32)cc1`, the “hERG current change (%, negative = inhibition) at 10uM” value came out at 8.83%.
Take `O=C(NCC1CCCO1)c1cn(-c2ccccc2)nc1-c1ccc(F)cc1` (stereo not drawn): the “hERG current change (%, negative = inhibition) at 10uM” value is given as -2.43%.
Regarding `N#CCCN1CCN(S(=O)(=O)c2ccc(S(=O)(=O)N3CCCCCC3)cc2)CC1`, the “hERG current change (%, negative = inhibition) at 10uM” value is reported as 6.1%.
Turning to `COc1ccc(Cl)cc1C(=O)Nc1cccnc1Cl`, the “hERG current change (%, negative = inhibition) at 10uM” value came out at 2.08%.
For `O=C(C1CC(=O)N(c2ccccc2)C1)N1CCCCCC1` (stereo not drawn), the “hERG current change (%, negative = inhibition) at 10uM” value worked out at 13%.
As for `Cc1cc(C)c(NC(=O)CSc2nncn2-c2cccnc2)c(C)c1`, the “hERG current change (%, negative = inhibition) at 10uM” value is recorded as 6.81%.
For `NC(=[NH2+])SCc1[nH+]cccc1O.[Cl-]`, the “hERG current change (%, negative = inhibition) at 10uM” value turned out to be 7.41%.
As for `CCOc1cc(/C=C2/N=C(c3ccc4c(c3)OCO4)OC2=O)ccc1OC(C)=O`, the “hERG current change (%, negative = inhibition) at 10uM” value worked out at 9.87%.
For the compound `Cc1ccc(S(=O)(=O)N2CCCC2)cc1C(=O)N1CCC(C)CC1`, the “hERG current change (%, negative = inhibition) at 10uM” value is listed as 3.3%.
Next, `COc1ccc(S(N)(=O)=O)cc1C(=O)NCC(C)(C)N1CCOCC1`: 8.36%; `COc1ccc(C#Cc2c(-c3ccsc3)oc3ccc(-c4cc(OC)c(OC)c(OC)c4)cc23)cc1`: -13.9%; `O=C(Nc1ccc(F)cc1)c1cc(S(=O)(=O)N2CCCCC2)cs1`: -1.08%.
Take `O=S(=O)(Nc1cccc(Oc2ccc(Cl)cc2)n1)c1ccc(F)cc1`: the “hERG current change (%, negative = inhibition) at 10uM” value is -20.6%.
As to `COc1ccc(C2=NOC(C(=O)NCc3ccco3)C2)cc1` (stereo not drawn), the “hERG current change (%, negative = inhibition) at 10uM” value was -16.6%.
Next, `O=C(CC(c1ccco1)C1CCCCC1=O)c1ccco1` (stereo not drawn): 2.21%.
On to `NS(=O)(=O)c1ccc(CCNC(=O)c2cnc(Cl)c(Cl)c2)cc1`, for which the “hERG current change (%, negative = inhibition) at 10uM” value is recorded as -5.24%.
`Cc1nnc(NC(=O)CC(NC(=O)C(F)(F)F)c2ccccc2)s1` (stereo not drawn): the “hERG current change (%, negative = inhibition) at 10uM” value is listed as 11.5%.
The value for `CCOC(=O)N1CCC(NC(=O)CC(NS(=O)(=O)c2ccc(C)cc2)c2ccco2)CC1` (stereo not drawn) was -7.75%; that for `O=C(NCCSCc1ccco1)c1ccc(CN2CCOCC2)cc1` was 7.13%.
Regarding `Cc1ccc(S(=O)(=O)N2[C@@H](c3ccc(Cl)cc3)C(C(=O)O)=CC[C@H]2c2ccc3c(c2)OCO3)cc1`, the “hERG current change (%, negative = inhibition) at 10uM” value is 0.175%.
With `CNC(=O)C1Cc2ccccc2CN1S(=O)(=O)c1cccs1` (stereo not drawn), the “hERG current change (%, negative = inhibition) at 10uM” value was -3.89%.
For `O=C(O)C1CCCCC1C(=O)Nc1ccc2c(c1)OCO2` (stereo not drawn), the “hERG current change (%, negative = inhibition) at 10uM” value stood at 10.7%.
`CC(C)OC(=O)c1cc2c(ccn2C)n1CC(=O)N(Cc1ccccc1)c1ccc(F)cc1`: the “hERG current change (%, negative = inhibition) at 10uM” value is given as -5.17%.
As to `CCSc1nc2ccccc2c(=O)n1C1CCOC(C)(C)C1` (stereo not drawn), the “hERG current change (%, negative = inhibition) at 10uM” value is 14.6%.
Regarding `COc1ccc(CN2CCSCC2)cc1O`, the “hERG current change (%, negative = inhibition) at 10uM” value is recorded as 14.4%.
For the compound `O=[N+]([O-])c1ccc(N2CCN(CCO)CC2)cc1Sc1nc2ccccc2[nH]1`, the “hERG current change (%, negative = inhibition) at 10uM” value was -12.4%.
For `O=C1OCCC1Sc1nc2ccccc2s1` (stereo not drawn), the “hERG current change (%, negative = inhibition) at 10uM” value is on record as 7.9%.
The value for `Cc1ccc(OCC(=O)Nc2ccc(S(=O)(=O)Nc3ccccn3)cc2)cc1` was 33.1%; that for `Cc1cccc(OCc2nc(-c3ccc(Br)o3)no2)c1` was -4.11%; that for `Cc1cc(C(=O)NCc2nc(-c3ccccc3)no2)ccc1[N+](=O)[O-]` was -20.1%.
Next, `NC(=O)CN1CCN(S(=O)(=O)c2ccc(Br)cc2)CC1`: 22.4%.
With `COc1ccc(CN2CC(C(=O)NCc3ccccn3)CC2=O)cc1` (stereo not drawn), the “hERG current change (%, negative = inhibition) at 10uM” value is recorded as -11.6%.
`O=C(O)CNC(=O)c1ccc2c(c1)OCCO2`: the “hERG current change (%, negative = inhibition) at 10uM” value was 2.5%.
Next, `N#C/C(=C\c1c(Oc2ccccc2Cl)nc2ccccn2c1=O)C(=O)NC1CCS(=O)(=O)C1` (stereo not drawn): 23.1%.
For `Cc1ccc(C23CC4CC(CC(C(=O)NN)(C4)C2)C3)cc1`, the “hERG current change (%, negative = inhibition) at 10uM” value came out at 15.8%.
For the compound `COc1cccc(C(=O)Nc2ccc(NC(=O)c3ccco3)nc2)c1`, the “hERG current change (%, negative = inhibition) at 10uM” value turned out to be 12.2%.
Next, `O=C(CSc1ccccn1)Nc1nncs1`: -3.82%; `[O-][n+]1c2ccccc2c2n1CCN1CCOC21c1ccc(Cl)cc1` (stereo not drawn): -42.3%; `COc1cc2cnc(-c3ccccc3)c(-c3ccc(C#N)cc3)c2cc1OC`: 0.457%.
The value for `C/C(=N\NC(=O)c1ccccc1F)c1ccc(C#N)cc1` was 2.58%.
In the case of `CC(C)N(c1ccccc1)c1ccc(NC(=O)COC(=O)CCN2C(=O)c3cccc([N+](=O)[O-])c3C2=O)cc1`, the “hERG current change (%, negative = inhibition) at 10uM” value is recorded as 2.79%.
As for `Cc1ccc(NC(=O)CSCC#N)cc1`, the “hERG current change (%, negative = inhibition) at 10uM” value came out at 12.5%.
Turning to `COCc1cc(OC(=O)N(C)C)nc2c1c(C)nn2C`, the “hERG current change (%, negative = inhibition) at 10uM” value was -9.48%.
`O=C(NCc1ccco1)C1CCN(c2nnc(-n3cccc3)s2)CC1`: the “hERG current change (%, negative = inhibition) at 10uM” value is -49.1%.
Turning to `CCOc1ccccc1NC(=O)c1ccc2nccnc2c1`, the “hERG current change (%, negative = inhibition) at 10uM” value was determined as 25.8%.
Consider `Cc1cc(-c2nn(-c3ccccc3F)cc2CN2CCC(O)CC2)c(C)s1`, for which the “hERG current change (%, negative = inhibition) at 10uM” value is recorded as -28.9%.
Turning to `CC(=O)N1CCCc2cc(S(=O)(=O)N(C)Cc3ccccc3)ccc21`, the “hERG current change (%, negative = inhibition) at 10uM” value was -26.9%.
Take `CCNc1nc(N2CCOCC2)nc(N(c2ccccc2)c2ccccc2)n1`: the “hERG current change (%, negative = inhibition) at 10uM” value is -12.9%.
The value for `CCC(=O)c1cc(F)c(N2CCN(CC)CC2)cc1C` was -10.7%; that for `Cc1ccc(C(=O)COC(=O)CCc2ccc(S(=O)(=O)N3CCCCC3)cc2)cc1` was -10.8%; that for `Cc1ccc(-c2csc3ncn(-n4c(C)ccc4C)c(=O)c23)o1` was -2.83%.
In the case of `C/C(=N\Nc1cccc([N+](=O)[O-])c1)c1cc(F)ccc1O`, the “hERG current change (%, negative = inhibition) at 10uM” value is 15.9%.
As to `CCN(CC)S(=O)(=O)c1ccc(NS(=O)(=O)c2ccc(O)c([N+](=O)[O-])c2)cc1`, the “hERG current change (%, negative = inhibition) at 10uM” value is given as 0.141%.
Consider `Cc1ccc(C)c(N2CCN(C(=O)Cc3ccc(NC4=NC5CS(=O)(=O)CC5S4)cc3)CC2)c1` (stereo not drawn), for which the “hERG current change (%, negative = inhibition) at 10uM” value is reported as 2.82%.
Next, `CCCN(Cc1nnc(-c2ccccc2Cl)o1)C(=O)c1oc2ccccc2c1C`: -13.1%; `COc1ccc(N2CCC(CNC(=O)Nc3ccc(C)c(C)c3)C2)cc1` (stereo not drawn): 11.4%.
Regarding `O=C(Nc1nc(-c2ccc(Cl)s2)cs1)c1cccs1`, the “hERG current change (%, negative = inhibition) at 10uM” value was found to be 7.43%.
